From patent US12703706B2, “Anthelmintic compounds comprising a thienopyridine structure” (Intervet Inc., priority 2020, dated 2026)
pEC50: −log10 of the molar value.

What was measured:
[1] = system: Ascaridia galli (intestinal roundworm of chicken), larval stage 3; test: In vitro assay Ascaridia galli L3, minimum effective concentration; settings: read-out: MEC against Ascaridia galli L3, minimum effective concentration, microscopic examination, 20 larvae per well
Description: In Vitro Assay: Ascaridia galli and Oesophagostumum dentatum
Ascaridia galli (intestinal roundworm of chicken), larval stage 3 (“L3”); and Oesophagostumum dentatum (nodular worm of swine), larval stages 3 and 4 (respectively “L3” and “L4”) where suspended in a nutrient medium and distributed to 96 well plates with 20 larvae per well. The wells were spiked DMSO solutions of the compounds with declining concentration.

[2] = molecular target: Caenorhabditis elegans slo-1a (Caenorhabditis elegans, UniProt Q95V25); test: Agonistic activity at C. elegans Slo-1a, FLIPR membrane potential in CHO K1 cells; settings: EC50 value, CHO K1 cells stably transfected
Sequence of UniProt Q95V25 (Q95V25 whole entry): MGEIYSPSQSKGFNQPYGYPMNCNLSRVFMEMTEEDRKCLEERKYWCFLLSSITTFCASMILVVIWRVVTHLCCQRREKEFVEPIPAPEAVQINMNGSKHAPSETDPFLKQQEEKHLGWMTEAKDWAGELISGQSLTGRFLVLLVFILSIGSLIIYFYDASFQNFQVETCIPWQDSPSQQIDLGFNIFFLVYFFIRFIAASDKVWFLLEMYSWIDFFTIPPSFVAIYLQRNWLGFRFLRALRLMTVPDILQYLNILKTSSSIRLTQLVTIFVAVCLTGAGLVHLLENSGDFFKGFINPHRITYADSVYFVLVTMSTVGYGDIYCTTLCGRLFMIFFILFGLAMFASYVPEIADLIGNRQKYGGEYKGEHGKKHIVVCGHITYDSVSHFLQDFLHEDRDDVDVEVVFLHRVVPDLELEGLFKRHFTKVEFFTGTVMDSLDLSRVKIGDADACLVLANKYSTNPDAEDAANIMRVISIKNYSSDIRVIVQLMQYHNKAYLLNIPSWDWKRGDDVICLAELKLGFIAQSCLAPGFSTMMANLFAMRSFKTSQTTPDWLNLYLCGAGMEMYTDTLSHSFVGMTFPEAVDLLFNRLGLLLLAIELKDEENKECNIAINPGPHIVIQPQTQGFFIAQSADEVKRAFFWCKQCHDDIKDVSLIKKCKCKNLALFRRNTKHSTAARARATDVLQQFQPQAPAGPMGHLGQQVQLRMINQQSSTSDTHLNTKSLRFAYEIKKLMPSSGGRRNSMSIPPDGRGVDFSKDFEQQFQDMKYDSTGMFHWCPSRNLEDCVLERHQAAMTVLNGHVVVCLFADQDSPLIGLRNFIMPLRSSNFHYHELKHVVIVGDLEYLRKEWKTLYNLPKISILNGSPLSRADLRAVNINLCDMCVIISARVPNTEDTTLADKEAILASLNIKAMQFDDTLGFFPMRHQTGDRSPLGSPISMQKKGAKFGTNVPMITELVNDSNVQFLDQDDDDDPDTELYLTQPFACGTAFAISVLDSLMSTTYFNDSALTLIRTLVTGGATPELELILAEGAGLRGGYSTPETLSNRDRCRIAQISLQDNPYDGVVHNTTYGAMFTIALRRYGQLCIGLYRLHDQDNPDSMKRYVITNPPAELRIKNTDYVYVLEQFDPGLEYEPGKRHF
Description: In Vitro Assay: Agonistic Activity at C. elegans Slo-1a
A CHO K1 cell line stably transfected with the Caenorhabditis elegans slo-1a (accession no Y51A2D.19a) was established.
The complete measurement takes 150 s.

Cc1sc2c(N3CC(F)C3)c(C(=O)N[C@H]3CCCc4ccccc43)cnc2c1-c1cccc(Cl)c1Cl [Compound 61]
minimal effective concentration [1]: ≤ 50 µM
pEC50 [2]: > 6.00

CN(C)c1c(C(=O)NC2COc3ccccc32)cnc2c(-c3cccc(Cl)c3Cl)csc12 (stereo not drawn) [Compound 78]
minimal effective concentration [1]: ≤ 50 µM
pEC50 [2]: > 5.00

Cc1sc2c(N(C)C)c(C(=O)N[C@H]3CCCc4ccccc43)cnc2c1-c1cccc(Cl)c1Cl [Compound 35]
minimal effective concentration [1]: ≤ 50 µM
pEC50 [2]: > 6.00

CN(C)c1cccc(-c2csc3c(N(C)C)c(C(=O)N[C@H]4CCOc5ccccc54)cnc23)c1 [Compound 98]
minimal effective concentration [1]: ≤ 50 µM
pEC50 [2]: > 6.00

Cc1sc2c(N3CCOCC3)c(C(=O)N[C@H]3CCc4ccccc43)cnc2c1-c1cc(Cl)cc(Cl)c1 [Compound 69]
minimal effective concentration [1]: ≤ 50 µM
pEC50 [2]: > 5.00

O=C(N[C@H]1CCOc2ccccc21)c1cnc2c(-c3cc(F)cc(F)c3F)csc2c1NCCO [Compound 94]
minimal effective concentration [1]: ≤ 50 µM
pEC50 [2]: > 5.00

CN(C)c1c(C(=O)N[C@H]2CCOc3ccccc32)cnc2c(-c3cccc(OC(F)(F)F)c3)csc12 [Compound 97]
minimal effective concentration [1]: ≤ 50 µM
pEC50 [2]: > 6.00

C[C@H](NC(=O)c1cnc2c(-c3cccc(Cl)c3Cl)csc2c1N(C)C)c1ccccc1 [Compound 11]
minimal effective concentration [1]: ≤ 50 µM
pEC50 [2]: > 6.00

CN(C)c1c(C(=O)N[C@H]2CCc3ccccc32)cnc2c(-c3cc(F)cc(F)c3F)csc12 [Compound 25]
minimal effective concentration [1]: ≤ 50 µM
pEC50 [2]: > 6.00

O=C(N[C@H]1CCOc2ccccc21)c1cnc2c(-c3cccc(C(F)(F)F)c3)csc2c1N1CCOCC1 [Compound 42]
minimal effective concentration [1]: ≤ 50 µM
pEC50 [2]: > 6.00

O=C(N[C@H]1CCOc2ccccc21)c1cnc2c(-c3cc(F)cc(F)c3)csc2c1N1CCC1 [Compound 83]
minimal effective concentration [1]: ≤ 50 µM

CN1CCN(c2c(C(=O)N[C@H]3CCc4ccccc43)cnc3c(-c4cc(Cl)cc(Cl)c4)csc23)CC1 [Compound 29]
minimal effective concentration [1]: ≤ 50 µM

CN(CCO)c1c(C(=O)N[C@H]2CCOc3ccccc32)cnc2c(-c3cc(F)cc(F)c3F)csc12 [Compound 95]
minimal effective concentration [1]: ≤ 50 µM
pEC50 [2]: > 6.00

Cc1sc2c(N(C)C)c(C(=O)N[C@H]3CCCc4ccccc43)cnc2c1-c1cc(Cl)cc(Cl)c1 [Compound 38]
minimal effective concentration [1]: ≤ 50 µM
pEC50 [2]: > 6.00

COc1cccc(-c2csc3c(N(C)C)c(C(=O)N[C@H]4CCOc5ccccc54)cnc23)c1 [Compound 48]
minimal effective concentration [1]: ≤ 50 µM
pEC50 [2]: > 6.00

Cc1sc2c(N3CC(F)(F)C3)c(C(=O)N[C@H]3CCc4ccccc43)cnc2c1-c1cc(Cl)cc(Cl)c1 [Compound 60]
minimal effective concentration [1]: ≤ 50 µM
pEC50 [2]: > 6.00

O=C(N[C@H]1CCOc2ccccc21)c1cnc2c(-c3cc(F)cc(F)c3)csc2c1NC1CC1 [Compound 86]
minimal effective concentration [1]: ≤ 50 µM

O=C(N[C@H]1CCOc2ccccc21)c1cnc2c(-c3cccc(C(F)(F)F)c3)csc2c1NC1CC1 [Compound 89]
minimal effective concentration [1]: ≤ 50 µM

CN(C)c1c(C(=O)N[C@H]2CCOc3ccccc32)cnc2c(-c3cccc(C(F)(F)F)c3)csc12 [Compound 47]
minimal effective concentration [1]: ≤ 50 µM
pEC50 [2]: > 5.00

Cc1sc2c(N3CC(F)C3)c(C(=O)N[C@H]3CCCc4ccccc43)cnc2c1-c1cc(Cl)cc(Cl)c1 [Compound 64]
minimal effective concentration [1]: ≤ 50 µM
pEC50 [2]: > 6.00
